According to PMC3242762:
Results are given in words; binding and its absence hold for the method and conditions named. In cells and extracts the contact can be indirect. Some binding calls cover weakened binding; strength is not graded here. For part of these data: Sequences can lack the tags named with a protein. Blank lines part the entries; values can stand above or below the molecule they belong to.

Amino acid sequences for entries named in this document (tags omitted).
UniProt P52479: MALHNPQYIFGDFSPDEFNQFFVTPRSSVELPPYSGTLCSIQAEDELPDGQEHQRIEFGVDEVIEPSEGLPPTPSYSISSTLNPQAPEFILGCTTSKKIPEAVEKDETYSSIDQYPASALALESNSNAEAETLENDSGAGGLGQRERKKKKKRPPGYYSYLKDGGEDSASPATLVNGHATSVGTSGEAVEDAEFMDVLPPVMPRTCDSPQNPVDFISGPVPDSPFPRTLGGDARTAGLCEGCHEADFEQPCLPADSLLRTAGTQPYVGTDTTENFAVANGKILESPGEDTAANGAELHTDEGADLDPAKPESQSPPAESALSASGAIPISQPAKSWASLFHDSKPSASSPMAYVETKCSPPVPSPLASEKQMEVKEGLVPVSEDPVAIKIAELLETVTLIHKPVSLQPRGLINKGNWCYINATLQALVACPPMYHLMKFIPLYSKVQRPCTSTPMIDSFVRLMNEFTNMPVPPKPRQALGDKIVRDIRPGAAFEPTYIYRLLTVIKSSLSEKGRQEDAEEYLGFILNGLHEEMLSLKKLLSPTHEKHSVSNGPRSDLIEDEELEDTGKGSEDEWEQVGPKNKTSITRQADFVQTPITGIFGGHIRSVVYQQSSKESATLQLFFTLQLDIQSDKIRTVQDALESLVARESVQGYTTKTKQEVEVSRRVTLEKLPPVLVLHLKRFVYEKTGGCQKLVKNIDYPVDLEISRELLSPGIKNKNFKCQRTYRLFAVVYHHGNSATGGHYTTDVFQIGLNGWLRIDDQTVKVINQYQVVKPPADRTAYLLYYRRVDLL

Assays:
[1] = molecular target: T1, V5-tagged human RasGAP lacking its first two methionine residues (V5-hRasGAP[3-1931].dn3, #686) (human) (UniProt P20936); test: co-IP; anti-V5 immunoprecipitation from 1 mg lysate of transfected HEK293T cells; blots with HA- and V5-specific antibodies
T1 sequence: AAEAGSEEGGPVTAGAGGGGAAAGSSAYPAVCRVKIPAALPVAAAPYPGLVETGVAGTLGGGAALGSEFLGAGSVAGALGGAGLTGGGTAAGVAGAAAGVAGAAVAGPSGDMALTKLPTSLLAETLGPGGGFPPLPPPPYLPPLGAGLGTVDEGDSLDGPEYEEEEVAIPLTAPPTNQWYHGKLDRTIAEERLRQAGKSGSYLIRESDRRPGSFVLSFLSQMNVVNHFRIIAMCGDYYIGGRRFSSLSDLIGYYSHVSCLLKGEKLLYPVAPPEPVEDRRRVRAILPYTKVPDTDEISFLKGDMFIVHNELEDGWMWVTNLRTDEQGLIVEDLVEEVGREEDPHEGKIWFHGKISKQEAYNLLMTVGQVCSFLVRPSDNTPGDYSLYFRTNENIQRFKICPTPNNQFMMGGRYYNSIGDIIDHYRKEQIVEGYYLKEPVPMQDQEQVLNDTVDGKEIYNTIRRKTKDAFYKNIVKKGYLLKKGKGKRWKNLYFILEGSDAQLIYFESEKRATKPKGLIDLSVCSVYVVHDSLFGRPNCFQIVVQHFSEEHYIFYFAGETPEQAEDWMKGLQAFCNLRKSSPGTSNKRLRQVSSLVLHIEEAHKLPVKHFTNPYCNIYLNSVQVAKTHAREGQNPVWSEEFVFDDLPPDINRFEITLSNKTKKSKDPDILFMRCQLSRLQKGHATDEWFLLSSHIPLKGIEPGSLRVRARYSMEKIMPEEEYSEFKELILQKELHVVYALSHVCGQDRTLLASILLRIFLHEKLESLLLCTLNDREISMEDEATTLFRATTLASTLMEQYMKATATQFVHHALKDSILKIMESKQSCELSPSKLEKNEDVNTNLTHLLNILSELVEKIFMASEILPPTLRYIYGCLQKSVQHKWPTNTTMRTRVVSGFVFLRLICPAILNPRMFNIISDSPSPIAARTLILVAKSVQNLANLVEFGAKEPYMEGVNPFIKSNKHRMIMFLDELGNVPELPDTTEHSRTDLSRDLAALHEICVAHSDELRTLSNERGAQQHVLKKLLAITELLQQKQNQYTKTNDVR

[2] = molecular target: poly-histidine- and S-tagged mouse USP10 (6xHis-Stag-mUSP10.dn3, #646) (mouse) (UniProt P52479); test: pull-down; S-tag pull-down from 1 mg lysate of transfected HEK293T cells (Stag lysis buffer): biotinylated S-protein 3 h at 4°C, then streptavidin beads; washed with PBS, 1% NP40; blot with anti-HA; in Figure 4 cells were treated with TAT-RasGAP_(317-326) for 20 h before lysis
[3] = molecular target: T2, S-tagged fragment N2 of human RasGAP (Stag-hRasGAP[158-455].dn3, #754) (human) (UniProt P20936); test: as above
T2 sequence: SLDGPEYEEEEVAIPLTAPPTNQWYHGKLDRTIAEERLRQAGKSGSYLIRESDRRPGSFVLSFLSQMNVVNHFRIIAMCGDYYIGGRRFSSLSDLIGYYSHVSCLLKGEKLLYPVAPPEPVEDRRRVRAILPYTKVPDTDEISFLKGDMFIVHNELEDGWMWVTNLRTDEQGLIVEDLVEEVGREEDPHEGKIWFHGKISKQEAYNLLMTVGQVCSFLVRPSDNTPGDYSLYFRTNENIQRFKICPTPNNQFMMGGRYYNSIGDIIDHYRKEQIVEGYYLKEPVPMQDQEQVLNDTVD

[4] = molecular target: endogenous RasGAP of CCL39 cells (Chinese hamster (endogenous in CCL39)); test: co-IP; anti-RasGAP immunoprecipitation of endogenous proteins from non-confluent, exponentially growing CCL39 or U2OS cells lysed in 1% Triton X-100 lysis buffer; protein G sepharose; blots for G3BP1 and p190 RhoGAP
[5] = molecular target: T3, endogenous RasGAP of U2OS cells (human (endogenous in U2OS)) (UniProt P20936); test: as above
T3 sequence: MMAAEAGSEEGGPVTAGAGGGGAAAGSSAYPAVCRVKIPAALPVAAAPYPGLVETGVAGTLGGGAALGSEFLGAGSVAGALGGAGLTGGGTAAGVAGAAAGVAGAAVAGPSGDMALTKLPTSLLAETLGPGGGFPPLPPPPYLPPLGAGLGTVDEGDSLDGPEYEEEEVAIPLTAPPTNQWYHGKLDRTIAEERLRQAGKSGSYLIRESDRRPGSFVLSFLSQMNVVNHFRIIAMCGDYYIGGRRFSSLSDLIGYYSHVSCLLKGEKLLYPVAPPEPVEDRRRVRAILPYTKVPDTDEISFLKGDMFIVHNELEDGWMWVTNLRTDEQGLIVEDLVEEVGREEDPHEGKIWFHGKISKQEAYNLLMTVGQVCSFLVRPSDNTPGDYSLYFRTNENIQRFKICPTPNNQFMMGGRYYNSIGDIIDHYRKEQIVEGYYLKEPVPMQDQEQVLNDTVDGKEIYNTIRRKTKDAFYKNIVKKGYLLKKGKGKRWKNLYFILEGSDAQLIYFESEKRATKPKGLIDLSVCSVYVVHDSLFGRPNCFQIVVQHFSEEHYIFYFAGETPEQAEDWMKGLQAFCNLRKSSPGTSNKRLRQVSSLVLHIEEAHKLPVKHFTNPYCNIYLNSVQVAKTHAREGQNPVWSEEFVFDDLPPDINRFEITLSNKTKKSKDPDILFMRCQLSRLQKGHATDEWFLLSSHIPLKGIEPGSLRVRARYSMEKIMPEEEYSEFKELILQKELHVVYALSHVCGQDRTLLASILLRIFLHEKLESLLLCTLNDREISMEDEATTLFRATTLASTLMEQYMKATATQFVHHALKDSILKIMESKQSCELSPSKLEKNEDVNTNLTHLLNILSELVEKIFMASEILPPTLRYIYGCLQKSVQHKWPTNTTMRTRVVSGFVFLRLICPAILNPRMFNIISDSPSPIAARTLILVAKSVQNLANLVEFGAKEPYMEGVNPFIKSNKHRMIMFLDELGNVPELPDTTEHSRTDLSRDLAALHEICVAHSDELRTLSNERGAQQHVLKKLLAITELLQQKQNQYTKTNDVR

binding [1]: no binding
binding [2]: binds
binding [3]: no binding
Molecule: HA-tagged human G3BP1 (HA-hG3BP1.dn3, #541) (from UniProt Q13283-1 1-466)

binding [4]: no binding
Molecule: endogenous G3BP1 of CCL39 cells (from UniProt A0A9J7JVX0 1-465)

binding [5]: binds
B1: endogenous p190 RhoGAP of U2OS cells (protein, UniProt Q9NRY4 1-1499)
chain: MMMARKQDVRIPTYNISVVGLSGTEKEKGQCGIGKSCLCNRFVRPSADEFHLDHTSVLSTSDFGGRVVNNDHFLYWGEVSRSLEDCVECKMHIVEQTEFIDDQTFQPHRSTALQPYIKRAAATKLASAEKLMYFCTDQLGLEQDFEQKQMPDGKLLVDGFLLGIDVSRGMNRNFDDQLKFVSNLYNQLAKTKKPIVVVLTKCDEGVERYIRDAHTFALSKKNLQVVETSARSNVNVDLAFSTLVQLIDKSRGKTKIIPYFEALKQQSQQIATAKDKYEWLVSRIVKNHNENWLSVSRKMQASPEYQDYVYLEGTQKAKKLFLQHIHRLKHEHIERRRKLYLAALPLAFEALIPNLDEIDHLSCIKAKKLLETKPEFLKWFVVLEETPWDATSHIDNMENERIPFDLMDTVPAEQLYEAHLEKLRNERKRVEMRRAFKENLETSPFITPGKPWEEARSFIMNEDFYQWLEESVYMDIYGKHQKQIIDKAKEEFQELLLEYSELFYELELDAKPSKEKMGVIQDVLGEEQRFKALQKLQAERDALILKHIHFVYHPTKETCPSCPACVDAKIEHLISSRFIRPSDRNQKNSLSDPNIDRINLVILGKDGLARELANEIRALCTNDDKYVIDGKMYELSLRPIEGNVRLPVNSFQTPTFQPHGCLCLYNSKESLSYVVESIEKSRESTLGRRDNHLVHLPLTLILVNKRGDTSGETLHSLIQQGQQIASKLQCVFLDPASAGIGYGRNINEKQISQVLKGLLDSKRNLNLVSSTASIKDLADVDLRIVMCLMCGDPFSADDILFPVLQSQTCKSSHCGSNNSVLLELPIGLHKKRIELSVLSYHSSFSIRKSRLVHGYIVFYSAKRKASLAMLRAFLCEVQDIIPIQLVALTDGAVDVLDNDLSREQLTEGEEIAQEIDGRFTSIPCSQPQHKLEIFHPFFKDVVEKKNIIEATHMYDNAAEACSTTEEVFNSPRAGSPLCNSNLQDSEEDIEPSYSLFREDTSLPSLSKDHSKLSMELEGNDGLSFIMSNFESKLNNKVPPPVKPKPPVHFEITKGDLSYLDQGHRDGQRKSVSSSPWLPQDGFDPSDYAEPMDAVVKPRNEEENIYSVPHDSTQGKIITIRNINKAQSNGSGNGSDSEMDTSSLERGRKVSIVSKPVLYRTRCTRLGRFASYRTSFSVGSDDELGPIRKKEEDQASQGYKGDNAVIPYETDEDPRRRNILRSLRRNTKKPKPKPRPSITKATWESNYFGVPLTTVVTPEKPIPIFIERCIEYIEATGLSTEGIYRVSGNKSEMESLQRQFDQDHNLDLAEKDFTVNTVAGAMKSFFSELPDPLVPYNMQIDLVEAHKINDREQKLHALKEVLKKFPKENHEVFKYVISHLNKVSHNNKVNLMTSENLSICFWPTLMRPDFSTMDALTATRTYQTIIELFIQQCPFFFYNRPITEPPGARPSSPSAVASTVPFLTSTPVTSQPSPPQSPPPTPQSPMQPLLPSQLQAEHTL

binding [1]: binds
B2: HA-tagged rat p190RhoGAP (HA-rRhoGAP.prc, #196) (protein, UniProt P81128 1-1499)
chain: MMMARKQDVRIPTYNISVVGLSGTEKEKGQCGIGKSCLCNRFVRPSADEFHLDHTSVLSTSDFGGRVVNNDHFLYWGEVSRSLEDCVECKMHIVEQTEFIDDQTFQPHRSTALQPYIKRAAATKLASAEKLMYFCTDQLGLEQDFEQKQMPDGKLLVDGFLLGIDVSRGMNRNFDDQLKFVSNLYNQLAKTKKPIVIVLTKCDEGVERYIRDAHTFALSKKNLQVVETSARSNVNVDLAFSTLVQLIDKSRGKTKIIPYFEALKQQSQQIATAKDKYEWLVSRIVKSHNENWLSVSRKMQASPEYQDYVYLEGTQKAKKLFLQHIHRLKHEHIERRRKLYLAALPLAFEALIPNLDEVDHLSCIKAKKLLETKPEFLKWFVVLEETPWDETSHIDNMENERIPFDLMDTVPAEQLYETHLEKLRNERKRAEMRRAFKENLETSPFITPGKPWEEARSFIMNEDFYQWLEESVYMDIYGKHQKQIIDRAKEEFQELLLEYSELFYELELDAKPSKEKMGVIQDVLGEEQRFKALQKLQAERDALILKHIHFVYHPTKETCPSCPACVDAKIEHLISSRFIRPSDRNQKNSLSDPNIDRINLVILGKDGLARELANEIRALCTNDDKYVIDGKMYELSLRPIEGNVRLPVNSFQTPTFQPHGCLCLYNSKESLSYVVESIEKSRESTLGRRDNHLVHLPLTLILVNKRGDTSGETLHSLIQQGQQIASKLQCVFLDPASAGIGYGRNINEKQISQVLKGLLDSKRNLNLVSSTASIKDLADVDLRIVMCLMCGDPFSADDILSPVLQSQTCKSSHCGSSNSVLLELPIGVHKKRIELSVLSYHSSFSIRKSRLVHGYIVFYSAKRKASLAMLRAFLCEVQDIIPIQLVALTDGAIDVLDNDLSREQLTEGEEIAQEIDGRFTSIPCSQPQHKLELFHPFFKDVVEKKNIIEATHMYDNVAEACSTTEEVFNSPRAGSPLCNSNLQDSEEDVEPPSYHLFREDATLPSLSKDHSKFSMELEGNDGLSFIMSNFESKLNNKVPPPVKPKPPVHFEITKDLSYLDQGHREGQRKSMSSSPWMPQDGFDPSDYAEPMDAVVKPRNEEENIYSVPHDSTQGKIITIRNINKAQSNGSGNGSDSEMDTSSLERGRKVSAVSKPVLYRTRCTRLGRFASYRTSFSVGSDDELGPIRKKEEDQASQGYKGDNAVIPYETDEDPRRRNILRSLRRNTKKPKPKPRPSITKATWESNYFGVPLTTVVTPEKPIPIFIERCIEYIEATGLSTEGIYRVSGNKSEMESLQRQFDQDHNLDLAEKDFTVNTVAGAMKSFFSELPDPLVPYSMQIDLVEAHKINDREQKLHALKEVLKKFPKENHEVFKYVISHLNRVSHNNKVNLMTSENLSICFWPTLMRPDFSSMDALTATRSYQTIIELFIQQCPFFFYNRPISEPPGAAPGSPSAMAPTVPFLTSTPATSQPSPPQSPPPTPQSPMQPLLSSQLQAEHTL
